Test results from PubChem BioAssay (NCI).
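Five compound concentrations were applied to cells in 96-well plates for 48 hours; endpoints were derived by simple linear interpolation of the resulting dose-response curve. GI50 is the concentration that inhibits growth by half. TGI: total growth inhibition.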

System: NCI-H322M lung
Assay: inhibition of tumour cell growth, NCI panel, 48 h

Compound	GI50 [µM]	TGI [µM]
COc1ccccc1/C=C/C(=O)c1ccc(OC)c(S(N)(=O)=O)c1	3.19	12.8
CSc1ccccc1NC(=O)c1ccc2nn(/C(C#N)=C/c3ccccn3)nc2c1	13.8	27.2
Clc1ccccc1Nc1nnc(-c2c[nH]c3ccccc23)o1	4.39	> 100
